# Laboratory results from the supplement of paper PMC12217912.
# Some of the results follow. The full chains were built here from the parent and the listed change. Inactive controls read about 0.05.
# B1: TEV protease; numbered along this chain (parent)
# chain: MGESLFKGPRDYNPISSSICHLTNESDGHTTSLYGIGFGPFIITNKHLFRRNNGTLVVQSLHGVFKVKDTTTLQQHLVDGRDMIIIRMPKDFPPFPQKLKFREPQREERICLVTTNFQTKSMSSMVSDTSCTFPSGDGIFWKHWIQTKDGQCGSPLVSTRDGFIVGIHSASNFTNTNNYFTSVPKNFMELLTNQEAQQWVSGWRLNADSVLWGGHKVFMVKPEEPFQPVKEATQL
# Variants of: B1
# Test: raw area under fraction-flipped curve 0-4 h after induction (AUC4h, not background-subtracted), DNA-recorder readout of cleavage of the substrate (dimensionless); higher = more cleavage of the substrate by the protease variant
# Conditions: temperature: 34 °C; time window: 0-4 h after rhamnose induction
# 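Further: Bxb1 expression induced with 0.2% (w/v) L-rhamnose at OD600 near 0.5, cultures sampled hourly, flipped fraction per protease–substrate barcode pair counted by paired-end Illumina sequencing.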
Variant,area with substrate EALYFQS,area with substrate ECLYFQS,area with substrate EDLYFQS,area with substrate EELYFQS,area with substrate EGLYFQS,area with substrate EHLYFQS,area with substrate EILYFQS,area with substrate EKLYFQS,area with substrate ELLYFQS,area with substrate EMLYFQS,area with substrate EQLYFQS,area with substrate ERLYFQS,area with substrate ESLYFQS,area with substrate ETLYFQS,area with substrate EVLYFQS,area with substrate EWLYFQS,area with substrate EFLYFQS,area with substrate EYLYFQS,area with substrate EPLYFQS
L235M,0.0843,0.0994,0.114,0.137,0.101,0.153,0.071,0.0909,0.0766,0.062,0.121,0.0482,0.108,0.109,0.106,0.0961,–,–,–
H215G,0.0721,0.0601,–,0.066,0.0193,0.0703,0.0626,0.0956,0.0556,0.068,0.052,0.0665,0.0525,0.054,0.0636,0.0625,0.0738,0.0538,–
E103Y,–,–,–,–,0.106,–,0.0818,–,–,0.0905,–,–,–,–,0.0828,0.0745,–,0.115,–
N178I,–,–,–,0.0768,–,–,0.0777,–,0.0936,–,0.0783,–,–,–,0.0615,0.0888,–,–,–
M219L,0.112,0.127,0.0953,–,0.0856,–,0.088,0.123,–,0.112,–,–,0.116,0.0629,0.0878,0.0842,–,0.0909,–
M219D,0.0886,0.0835,0.118,0.0772,0.0649,0.103,0.0762,0.0539,–,–,0.0973,0.0683,0.0891,0.084,0.0746,0.0781,0.0974,0.0642,0.11
M219Q,0.121,0.071,0.132,–,0.0838,–,0.124,0.0904,0.104,0.0986,0.116,0.0956,0.0847,0.0983,0.0799,0.0859,0.0928,0.0825,–
M219R,0.0864,0.0635,0.0918,–,–,0.0731,0.063,0.057,0.0537,0.0674,0.0854,0.0627,0.0701,–,0.0572,0.0614,0.0771,0.0534,–
G35M,–,–,–,–,–,–,–,–,–,–,–,0.0421,–,–,–,–,–,–,–
G35L,–,–,–,–,–,–,–,–,–,–,0.0466,–,0.0502,–,0.0483,0.022,–,–,–
E223F,0.0951,0.0798,–,0.1,0.0964,0.0949,0.072,0.0824,0.0636,–,–,0.083,0.0794,0.053,0.0907,0.053,0.0846,–,–
K221N,0.132,0.0901,0.113,0.121,–,0.103,0.0842,0.103,0.0776,0.126,0.0936,0.0962,0.0998,0.105,0.0993,0.106,–,–,0.0642
K221Y,0.0965,0.0974,0.136,0.143,0.111,–,0.0642,0.139,0.0819,0.11,0.126,0.107,0.0901,0.107,0.0911,0.0796,0.0988,–,–
K221T,0.0981,0.09,0.133,–,0.0792,–,–,–,0.0773,0.103,0.113,0.0888,0.0465,–,0.0728,–,–,–,0.0819
